Consider 15 compounds from the supplement of paper PMC10502849.

Where a name gives a salt, the structure may show the parent alone. The list shows a part of the results. Repeats are few or missing, and single values can be far off.

The test system of test [1] is H9 teratoma-derived LAM model cells, TSC2-/-. The test is described as follows: percent SyTOX+ dead cells; higher = more cytotoxic. The note with it: 5 µM, treatment time 72 h, culture: 3D hyaluronic acid hydrogel.
Test [2] has as its system H9 teratoma-derived LAM model cells, WT. The test is described as follows: percent SyTOX+ dead cells; higher = more cytotoxic. The following applies: 5 µM, treatment time 72 h, culture: 3D hyaluronic acid hydrogel, genotype: WT.
Test [3] deals with H9 teratoma-derived LAM model cells, TSC2-/-. Description: percent of cells invaded past median invasion distance of vehicle control; LAM is lymphangioleiomyomatosis; the cells come from teratomas of the human stem cell line H9; higher = more invasion; extreme values may be limits of the assay. The following applies: 5 µM, treatment time 72 h, culture: 3D hyaluronic acid hydrogel.
Test [4] concerns H9 teratoma-derived LAM model cells, WT. The description is as above. The following applies: 5 µM, treatment time 72 h, culture: 3D hyaluronic acid hydrogel, genotype: WT.
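For percent SyTOX+ dead cells in this document: cells seeded atop a hyaluronic acid gel crosslinked via MMP-cleavable peptides, containing vitronectin peptides and methylcellulose, imaged live by high-content microscopy with automated analysis, one technical replicate per compound.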
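For percent of cells invaded past median invasion distance of vehicle control in this document: live cells imaged by high content microscopy and scored with in-house automated image analysis, one technical replicate per compound in each genotype and rapamycin condition.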

As for `Cc1cc(Nc2ncc3c(n2)N(C)C(=O)N(c2cc(NC(=O)c4cccc(C(F)(F)F)c4)ccc2C)C3)n(C)n1` [SC-1, Pluripotin], the “percent SyTOX+ dead cells” value in test [1] (rapamycin 0 nM) is 65.9%; in test [1] (rapamycin 20 nM) it was 63.4%; in test [2] (rapamycin 0 nM) it was 88%; in test [2] (rapamycin 20 nM), 82.4%. For the same compound, the percent in test [3] (rapamycin 0 nM) came to 0.59%; in test [3] (rapamycin 20 nM), 0%; in test [4] (rapamycin 0 nM) it was 0%; in test [4] (rapamycin 20 nM), 0%.

For the compound `Cc1cc(F)c(Nc2ncnc3cc(OCc4ccccc4)ccc23)cc1O`, the “percent SyTOX+ dead cells” value came out at 21.1% in test [1] (rapamycin 0 nM), 10.4% in test [1] (rapamycin 20 nM), 11.6% in test [2] (rapamycin 0 nM) and 12.8% in test [2] (rapamycin 20 nM). In addition, the percent was 14.7% in test [3] (rapamycin 0 nM), 22.3% in test [3] (rapamycin 20 nM), 27.4% in test [4] (rapamycin 0 nM) and 17.9% in test [4] (rapamycin 20 nM).

On to `Oc1ccc(-c2ccc(-c3cc(Nc4ccc(CNC5CC5)cc4)n[nH]3)cc2)c(O)c1` [TCS 2312 dihydrochloride], for which the “percent SyTOX+ dead cells” value was 34.4% in test [1] (rapamycin 0 nM), 39.2% in test [1] (rapamycin 20 nM), 44.8% in test [2] (rapamycin 0 nM) and 37% in test [2] (rapamycin 20 nM). Further, the percent in test [3] (rapamycin 0 nM) is 0%; in test [3] (rapamycin 20 nM), 0%; in test [4] (rapamycin 0 nM) it was 1.15%; in test [4] (rapamycin 20 nM) it was 0%.

As for `NS(=O)(=O)OCC1CC(n2ccc3c(NC4CCc5ccccc54)ncnc32)CC1O` (stereo not given) [MLN-4924, Pevonedistat], the “percent SyTOX+ dead cells” value in test [1] (rapamycin 0 nM) worked out at 10.4%; in test [1] (rapamycin 20 nM), 11.1%; in test [2] (rapamycin 0 nM), 15.6%; in test [2] (rapamycin 20 nM), 11.5%. In addition, the percent in test [3] (rapamycin 0 nM) worked out at 46%; in test [3] (rapamycin 20 nM), 33.2%; in test [4] (rapamycin 0 nM), 26.4%; in test [4] (rapamycin 20 nM), 21.1%.

For the compound `Nc1nc(N)c2nc(-c3cccc(O)c3)c(-c3cccc(O)c3)nc2n1`, the “percent SyTOX+ dead cells” value in test [1] (rapamycin 0 nM) came to 6.11%; in test [1] (rapamycin 20 nM), 5.49%; in test [2] (rapamycin 0 nM), 6.96%; in test [2] (rapamycin 20 nM) it was 9.15%. Moreover, the percent came to 91.7% in test [3] (rapamycin 0 nM), 50% in test [3] (rapamycin 20 nM), 88.1% in test [4] (rapamycin 0 nM) and 31.4% in test [4] (rapamycin 20 nM).

With `Cc1cc(Nc2ncc3cc(-c4c(Cl)cccc4Cl)c(=O)n(C)c3n2)ccc1F`, the “percent SyTOX+ dead cells” value is 24.8% in test [1] (rapamycin 0 nM), 29.4% in test [1] (rapamycin 20 nM), 69% in test [2] (rapamycin 0 nM) and 39.5% in test [2] (rapamycin 20 nM). For the same compound, the percent in test [3] (rapamycin 0 nM) was 0.78%; in test [3] (rapamycin 20 nM), 3.5%; in test [4] (rapamycin 0 nM) it was 0%; in test [4] (rapamycin 20 nM), 0%.

As for `CC1=C(C(=O)Nc2cc3cn[nH]c3cc2F)C(c2ccc(C(F)(F)F)cc2)CC(=O)N1` (stereo not given), the “percent SyTOX+ dead cells” value in test [1] (rapamycin 0 nM) stood at 22.9%; in test [1] (rapamycin 20 nM) it was 24.4%; in test [2] (rapamycin 0 nM), 47.9%; in test [2] (rapamycin 20 nM), 40.4%. Besides, the percent in test [3] (rapamycin 0 nM) came to 0.82%; in test [3] (rapamycin 20 nM), 3.25%; in test [4] (rapamycin 0 nM) it was 0%; in test [4] (rapamycin 20 nM), 6.38%.

`O=c1ncn2nc(Sc3ccc(F)cc3F)ccc2c1-c1c(Cl)cccc1Cl`: the “percent SyTOX+ dead cells” value in test [1] (rapamycin 0 nM) worked out at 2.2%; in test [1] (rapamycin 20 nM), 0%; in test [2] (rapamycin 0 nM) it was 5.66%; in test [2] (rapamycin 20 nM), 3.79%. Further, the percent stood at 85.2% in test [3] (rapamycin 0 nM), 67.7% in test [3] (rapamycin 20 nM), 80.5% in test [4] (rapamycin 0 nM) and 55% in test [4] (rapamycin 20 nM).

Take `Cc1cc([C@@H](C)Nc2ccccc2C(=O)O)c2nc(N3CCOCC3)cc(=O)n2c1`: the “percent SyTOX+ dead cells” value in test [1] (rapamycin 0 nM) was determined as 5.93%; in test [1] (rapamycin 20 nM), 5.41%; in test [2] (rapamycin 0 nM), 29.9%; in test [2] (rapamycin 20 nM) it was 20.8%. Also, the percent is 51.7% in test [3] (rapamycin 0 nM), 36.9% in test [3] (rapamycin 20 nM), 63% in test [4] (rapamycin 0 nM) and 27% in test [4] (rapamycin 20 nM).

For `CC(=O)O[C@H]1C(=O)[C@@]2(C)[C@H]([C@H](OC(=O)c3ccccc3)[C@]3(O)C[C@H](OC(=O)[C@H](O)[C@@H](NC(=O)c4ccccc4)c4ccccc4)C(C)=C1C3(C)C)[C@]1(OC(C)=O)CO[C@@H]1C[C@@H]2O` [Paclitaxel, Taxol], the “percent SyTOX+ dead cells” value in test [1] (rapamycin 0 nM) stood at 58.7%; in test [1] (rapamycin 20 nM), 39.3%; in test [2] (rapamycin 0 nM), 69.2%; in test [2] (rapamycin 20 nM), 47.2%. Also, the percent in test [3] (rapamycin 0 nM) was determined as 15.1%; in test [3] (rapamycin 20 nM) it was 4.08%; in test [4] (rapamycin 0 nM) it was 2.2%; in test [4] (rapamycin 20 nM), 5.6%.

As for `NC(=O)c1cccc(N)c1` [3-Aminobenzamide, 3-ABA, INO-1001], the “percent SyTOX+ dead cells” value in test [1] (rapamycin 0 nM) stood at 19.8%; in test [1] (rapamycin 20 nM) it was 12.1%; in test [2] (rapamycin 0 nM) it was 10.4%; in test [2] (rapamycin 20 nM) it was 19.7%. Besides, the percent in test [3] (rapamycin 0 nM) came to 56%; in test [3] (rapamycin 20 nM), 25.4%; in test [4] (rapamycin 0 nM) it was 44.1%; in test [4] (rapamycin 20 nM) it was 45.2%.

Regarding `Nc1[nH]nc2nc3ccccc3nc12`, the “percent SyTOX+ dead cells” value in test [1] (rapamycin 0 nM) stood at 11.9%; in test [1] (rapamycin 20 nM), 16.1%; in test [2] (rapamycin 0 nM), 7.02%; in test [2] (rapamycin 20 nM) it was 9.34%. Also, the percent was 16.4% in test [3] (rapamycin 0 nM), 16.9% in test [3] (rapamycin 20 nM), 22.8% in test [4] (rapamycin 0 nM) and 17.9% in test [4] (rapamycin 20 nM).

In the case of `CC(NC(=O)Cc1cc(F)cc(F)c1)C(=O)NC(C(=O)OC(C)(C)C)c1ccccc1` (stereo not given), the “percent SyTOX+ dead cells” value in test [1] (rapamycin 0 nM) was determined as 10.9%; in test [1] (rapamycin 20 nM), 6.12%; in test [2] (rapamycin 0 nM) it was 11%; in test [2] (rapamycin 20 nM) it was 13.7%. Besides, the percent was found to be 54.3% in test [3] (rapamycin 0 nM), 32.1% in test [3] (rapamycin 20 nM), 32.4% in test [4] (rapamycin 0 nM) and 44% in test [4] (rapamycin 20 nM).

`C[C@@H](c1ncncc1F)[C@](O)(Cn1cncn1)c1ccc(F)cc1F`: the “percent SyTOX+ dead cells” value in test [1] (rapamycin 0 nM) is 11.3%; in test [1] (rapamycin 20 nM), 6%; in test [2] (rapamycin 0 nM), 5.98%; in test [2] (rapamycin 20 nM), 5%. Moreover, the percent in test [3] (rapamycin 0 nM) was determined as 56.6%; in test [3] (rapamycin 20 nM), 30%; in test [4] (rapamycin 0 nM), 69%; in test [4] (rapamycin 20 nM) it was 41.1%.

As to `COc1cc2ncnc(Nc3ccc(Oc4ccccc4)cc3)c2cc1OC`, the “percent SyTOX+ dead cells” value in test [1] (rapamycin 0 nM) was 9.94%; in test [1] (rapamycin 20 nM) it was 8.92%; in test [2] (rapamycin 0 nM), 60.8%; in test [2] (rapamycin 20 nM), 40%. Also, the percent was determined as 11.6% in test [3] (rapamycin 0 nM), 12.7% in test [3] (rapamycin 20 nM), 4.12% in test [4] (rapamycin 0 nM) and 15.4% in test [4] (rapamycin 20 nM).
